# Data as given in the supplement of paper PMC8728848.
# The list shows a part of the results.
# Tests used:
# Assay in all cases: glycan array binding signal (z-score within array); higher = stronger binding
# Conditions in all cases: glycan notation: IUPAC condensed, linker removed
# Fuc(a1-2)Gal = biological target: Fuc(a1-2)Gal
# Outline: (§1)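 The Consortium for Functional Glycomics database supplied 3228 glycan arrays, of which those lacking an available protein sequence were dropped. The binding signal, a within-array Z-score, was averaged across arrays of the same protein sequence and across linkers. Negative scores can be read as non-binding.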
# Fuc(a1-2)Gal(b1-3)GalNAc = biological target: Fuc(a1-2)Gal(b1-3)GalNAc
# Outline: as §1
# [1] = biological target: Fuc(a1-2)Gal(b1-3)GalNAc(b1-3)Gal
# Outline: as §1
# [2] = biological target: Fuc(a1-2)Gal(b1-3)GalNAc(b1-3)Gal(a1-4)Gal(b1-4)Glc
# Outline: as §1
# [3] = biological target: Fuc(a1-2)Gal(b1-3)GalNAc(b1-4)[Neu5Ac(a2-3)]Gal(b1-4)Glc
# Outline: as §1
# Fuc(a1-2)Gal(b1-3)GlcNAc = biological target: Fuc(a1-2)Gal(b1-3)GlcNAc
# Outline: as §1
# [4] = biological target: Fuc(a1-2)Gal(b1-3)GlcNAc(b1-3)Gal(b1-4)Glc
# Outline: as §1
# [5] = biological target: Fuc(a1-2)Gal(b1-3)[Fuc(a1-4)]GlcNAc
# Outline: as §1
# Fuc(a1-2)Gal(b1-4)Glc = biological target: Fuc(a1-2)Gal(b1-4)Glc
# Outline: as §1
# Fuc(a1-2)Gal(b1-4)Glc6S = biological target: Fuc(a1-2)Gal(b1-4)Glc6S
# Outline: as §1
# Fuc(a1-2)Gal(b1-4)GlcNAc = biological target: Fuc(a1-2)Gal(b1-4)GlcNAc
# Outline: as §1
# [6] = biological target: Fuc(a1-2)Gal(b1-4)GlcNAc(b1-3)Gal(b1-4)GlcNAc
# Outline: as §1
# [7] = biological target: Fuc(a1-2)Gal(b1-4)GlcNAc(b1-3)Gal(b1-4)GlcNAc(b1-3)Gal(b1-4)GlcNAc
# Outline: as §1
# [8] = biological target: Fuc(a1-2)Gal(b1-4)GlcNAc6S
# Outline: as §1
# [9] = biological target: Fuc(a1-2)Gal(b1-4)[Fuc(a1-3)]GlcNAc
# Outline: as §1
# [10] = biological target: Fuc(a1-2)Gal(b1-4)[Fuc(a1-3)]GlcNAc(b1-3)Gal(b1-4)[Fuc(a1-3)]GlcNAc
# Outline: as §1
# [11] = biological target: Fuc(a1-2)Gal(b1-4)[Fuc(a1-3)]GlcNAc(b1-3)Gal(b1-4)[Fuc(a1-3)]GlcNAc(b1-3)Gal(b1-4)[Fuc(a1-3)]GlcNAc
# Outline: as §1
# Fuc(a1-2)Gal6S(b1-4)Glc = biological target: Fuc(a1-2)Gal6S(b1-4)Glc
# Outline: as §1
# [12] = biological target: Fuc(a1-2)Gal6S(b1-4)Glc6S
# Outline: as §1
# [13] = biological target: Fuc(a1-2)Gal6S(b1-4)GlcNAc
# Outline: as §1
# Fuc(a1-2)[Gal(a1-3)]Gal = biological target: Fuc(a1-2)[Gal(a1-3)]Gal
# Outline: as §1
# [14] = biological target: Fuc(a1-2)[Gal(a1-3)]Gal(b1-3)GlcNAc
# Outline: as §1
# [15] = biological target: Fuc(a1-2)[Gal(a1-3)]Gal(b1-4)Glc
# Outline: as §1
# [16] = biological target: Fuc(a1-2)[Gal(a1-3)]Gal(b1-4)GlcNAc
# Outline: as §1
# [17] = biological target: Fuc(a1-2)[Gal(a1-3)]Gal(b1-4)[Fuc(a1-3)]GlcNAc
# Outline: as §1
# [18] = biological target: Fuc(a1-2)[Gal(a1-4)]Gal(b1-4)GlcNAc
# Outline: as §1
# [19] = biological target: Fuc(a1-2)[GalNAc(a1-3)]Gal
# Outline: as §1
# [20] = biological target: Fuc(a1-2)[GalNAc(a1-3)]Gal(b1-3)GlcNAc
# Outline: as §1
# [21] = biological target: Fuc(a1-2)[GalNAc(a1-3)]Gal(b1-4)Glc
# Outline: as §1
# [22] = biological target: Fuc(a1-2)[GalNAc(a1-3)]Gal(b1-4)GlcNAc
# Outline: as §1
# [23] = biological target: Fuc(a1-2)[GalNAc(a1-3)]Gal(b1-4)[Fuc(a1-3)]GlcNAc
# Outline: as §1
# [24] = biological target: Fuc(a1-2)[GalNAc(a1-4)]Gal(b1-4)GlcNAc
# Outline: as §1
# [25] = biological target: Fuc(a1-2)[GalNAc(b1-3)]Gal
# Outline: as §1
# Fuc(a1-3)GlcNAc = biological target: Fuc(a1-3)GlcNAc
# Outline: as §1
# [26] = biological target: Fuc(a1-3)[Gal(b1-4)]Glc6S
# Outline: as §1
# [27] = biological target: Fuc(a1-3)[Gal(b1-4)]GlcNAc
# Outline: as §1
# [28] = biological target: Fuc(a1-3)[Gal(b1-4)]GlcNAc(b1-2)Man(a1-3)[Fuc(a1-3)[Gal(b1-4)]GlcNAc(b1-2)Man(a1-6)]Man(b1-4)GlcNAc(b1-4)GlcNAc
# Outline: as §1
# [29] = biological target: Fuc(a1-3)[Gal(b1-4)]GlcNAc(b1-2)Man(a1-6)[Gal(b1-4)GlcNAc(b1-2)Man(a1-3)]Man(b1-4)GlcNAc(b1-4)GlcNAc
# Outline: as §1
# [30] = biological target: Fuc(a1-3)[Gal(b1-4)]GlcNAc(b1-3)Gal(b1-3)[Fuc(a1-4)]GlcNAc
# Outline: as §1
# [31] = biological target: Fuc(a1-3)[Gal(b1-4)]GlcNAc(b1-4)Gal(b1-4)[Fuc(a1-3)]GlcNAc
# Outline: as §1
# [32] = biological target: Fuc(a1-3)[Gal(b1-4)]GlcNAc(b1-4)Gal(b1-4)[Fuc(a1-3)]GlcNAc(b1-4)Gal(b1-4)[Fuc(a1-3)]GlcNAc
# Outline: as §1
# [33] = biological target: Fuc(a1-3)[Gal(b1-4)]GlcNAc6S
# Outline: as §1
# [34] = biological target: Fuc(a1-3)[Gal3S(b1-4)]Glc6S
# Outline: as §1
# [35] = biological target: Fuc(a1-3)[Gal3S(b1-4)]GlcNAc
# Outline: as §1
# [36] = biological target: Fuc(a1-3)[Gal3S(b1-4)]GlcNAc6S
# Outline: as §1
# [37] = biological target: Fuc(a1-3)[GalNAc(b1-4)]GlcNAc
# Outline: as §1
# Fuc(a1-4)GlcNAc = biological target: Fuc(a1-4)GlcNAc
# Outline: as §1
# Fuc(b1-3)GlcNAc = biological target: Fuc(b1-3)GlcNAc
# Outline: as §1
# Gal(a1-2)Gal = biological target: Gal(a1-2)Gal
# Outline: as §1
# Gal(a1-3)Gal = biological target: Gal(a1-3)Gal
# Outline: as §1
# Gal(a1-3)Gal(b1-3)GlcNAc = biological target: Gal(a1-3)Gal(b1-3)GlcNAc
# Outline: as §1
# Gal(a1-3)Gal(b1-4)Glc = biological target: Gal(a1-3)Gal(b1-4)Glc
# Outline: as §1
# Gal(a1-3)Gal(b1-4)GlcNAc = biological target: Gal(a1-3)Gal(b1-4)GlcNAc
# Outline: as §1
# [38] = biological target: Gal(a1-3)Gal(b1-4)[Fuc(a1-3)]GlcNAc
# Outline: as §1
# Gal(a1-3)GalNAc = biological target: Gal(a1-3)GalNAc
# Outline: as §1
# [39] = biological target: Gal(a1-3)[Gal(a1-4)]Gal(b1-4)GlcNAc
# Outline: as §1
# Gal(a1-4)Gal(b1-4)Glc = biological target: Gal(a1-4)Gal(b1-4)Glc
# Outline: as §1
# Gal(a1-4)Gal(b1-4)GlcNAc = biological target: Gal(a1-4)Gal(b1-4)GlcNAc
# Outline: as §1
# Gal(a1-4)GlcNAc = biological target: Gal(a1-4)GlcNAc
# Outline: as §1
# Gal(a1-6)Glc = biological target: Gal(a1-6)Glc
# Outline: as §1
binder,measurement,setting,value
"L-Selectin (Homo sapiens), P14151 (protein) MIFPWKCQSTQRDLWNIFKLWGWTMLCCDFLAHHGTDCWTYHYSEKPMNWQRARRFCRDNYTDLVAIQNKAEIEYLEKTLPFSRSYYWIGIRKIGGIWTWVGTNKSLTEEAENWGDGEPNNKKNKEDCVEIYIKRNKDAGKWNDDACHKLKAALCYTASCQPWSCSGHGECVEIINNYTCNCDVGYYGPQCQFVIQCEPLEAPELGTMDCTHPLGNFSFSSQCAFSCSEGTNLTGIEETTCGPFGNWSSPEPTCQVIQCEPLSAPDLGIMNCSHPLASFSFTSACTFICSEGTELIGKKKTICESSGIWSNPSPICQKLDKSFSMIKEGDYNPLFIPVAVMVTAFSGLAFIIWLARRLKKGKKSKRSMNDPY",glycan array binding signal (z-score),Fuc(a1-2)Gal,-0.272
same,glycan array binding signal (z-score),Fuc(a1-2)Gal(b1-3)GalNAc,-0.293
same,glycan array binding signal (z-score),[1],-0.258
same,glycan array binding signal (z-score),[2],0.04
same,glycan array binding signal (z-score),[3],0.062
same,glycan array binding signal (z-score),Fuc(a1-2)Gal(b1-3)GlcNAc,-0.269
same,glycan array binding signal (z-score),[4],-0.199
same,glycan array binding signal (z-score),[5],-0.36
same,glycan array binding signal (z-score),Fuc(a1-2)Gal(b1-4)Glc,1.57
same,glycan array binding signal (z-score),Fuc(a1-2)Gal(b1-4)Glc6S,-0.11
same,glycan array binding signal (z-score),Fuc(a1-2)Gal(b1-4)GlcNAc,-0.224
same,glycan array binding signal (z-score),[6],-0.335
same,glycan array binding signal (z-score),[7],-0.409
same,glycan array binding signal (z-score),[8],-0.183
same,glycan array binding signal (z-score),[9],-0.378
same,glycan array binding signal (z-score),[10],-0.39
same,glycan array binding signal (z-score),[11],-0.309
same,glycan array binding signal (z-score),Fuc(a1-2)Gal6S(b1-4)Glc,-0.177
same,glycan array binding signal (z-score),[12],0.159
same,glycan array binding signal (z-score),[13],-0.004
same,glycan array binding signal (z-score),Fuc(a1-2)[Gal(a1-3)]Gal,-0.191
same,glycan array binding signal (z-score),[14],-0.221
same,glycan array binding signal (z-score),[15],-0.415
same,glycan array binding signal (z-score),[16],0.067
same,glycan array binding signal (z-score),[17],-0.273
same,glycan array binding signal (z-score),[18],0.366
same,glycan array binding signal (z-score),[19],-0.368
same,glycan array binding signal (z-score),[20],-0.383
same,glycan array binding signal (z-score),[21],-0.053
same,glycan array binding signal (z-score),[22],-0.174
same,glycan array binding signal (z-score),[23],-0.212
same,glycan array binding signal (z-score),[24],-0.09
same,glycan array binding signal (z-score),[25],0.137
same,glycan array binding signal (z-score),Fuc(a1-3)GlcNAc,-0.223
same,glycan array binding signal (z-score),[26],0.137
same,glycan array binding signal (z-score),[27],-0.005
same,glycan array binding signal (z-score),[28],0.164
same,glycan array binding signal (z-score),[29],-0.284
same,glycan array binding signal (z-score),[30],-0.294
same,glycan array binding signal (z-score),[31],-0.145
same,glycan array binding signal (z-score),[32],-0.343
same,glycan array binding signal (z-score),[33],-0.109
same,glycan array binding signal (z-score),[34],6.9
same,glycan array binding signal (z-score),[35],-0.113
same,glycan array binding signal (z-score),[36],8.15
same,glycan array binding signal (z-score),[37],-0.255
same,glycan array binding signal (z-score),Fuc(a1-4)GlcNAc,-0.311
same,glycan array binding signal (z-score),Fuc(b1-3)GlcNAc,-0.243
same,glycan array binding signal (z-score),Gal(a1-2)Gal,-0.195
same,glycan array binding signal (z-score),Gal(a1-3)Gal,0.225
same,glycan array binding signal (z-score),Gal(a1-3)Gal(b1-3)GlcNAc,-0.321
same,glycan array binding signal (z-score),Gal(a1-3)Gal(b1-4)Glc,-0.351
same,glycan array binding signal (z-score),Gal(a1-3)Gal(b1-4)GlcNAc,-0.365
same,glycan array binding signal (z-score),[38],-0.211
same,glycan array binding signal (z-score),Gal(a1-3)GalNAc,-0.013
same,glycan array binding signal (z-score),[39],-0.342
same,glycan array binding signal (z-score),Gal(a1-4)Gal(b1-4)Glc,-0.139
same,glycan array binding signal (z-score),Gal(a1-4)Gal(b1-4)GlcNAc,-0.141
same,glycan array binding signal (z-score),Gal(a1-4)GlcNAc,-0.267
same,glycan array binding signal (z-score),Gal(a1-6)Glc,0.48
